Measurements reported in article PMC4336329 (PLoS ONE, 2015).
About 14,000 (4.5%) of roughly 310,000 compounds showed an effect of 50% or more. Effects have a minus sign here. This is one part of the list.

Target: human ether-à-go-go-related gene (hERG) potassium channel (human, UniProt Q12809)
Assay: primary screen, population patch clamp on CHO cells stably expressing hERG
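Further: peak tail current of the secondary pulse compared with the same well before compound.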

human ether-à-go-go-related gene (hERG) potassium channel, sequence (Q12809 whole entry, looked up): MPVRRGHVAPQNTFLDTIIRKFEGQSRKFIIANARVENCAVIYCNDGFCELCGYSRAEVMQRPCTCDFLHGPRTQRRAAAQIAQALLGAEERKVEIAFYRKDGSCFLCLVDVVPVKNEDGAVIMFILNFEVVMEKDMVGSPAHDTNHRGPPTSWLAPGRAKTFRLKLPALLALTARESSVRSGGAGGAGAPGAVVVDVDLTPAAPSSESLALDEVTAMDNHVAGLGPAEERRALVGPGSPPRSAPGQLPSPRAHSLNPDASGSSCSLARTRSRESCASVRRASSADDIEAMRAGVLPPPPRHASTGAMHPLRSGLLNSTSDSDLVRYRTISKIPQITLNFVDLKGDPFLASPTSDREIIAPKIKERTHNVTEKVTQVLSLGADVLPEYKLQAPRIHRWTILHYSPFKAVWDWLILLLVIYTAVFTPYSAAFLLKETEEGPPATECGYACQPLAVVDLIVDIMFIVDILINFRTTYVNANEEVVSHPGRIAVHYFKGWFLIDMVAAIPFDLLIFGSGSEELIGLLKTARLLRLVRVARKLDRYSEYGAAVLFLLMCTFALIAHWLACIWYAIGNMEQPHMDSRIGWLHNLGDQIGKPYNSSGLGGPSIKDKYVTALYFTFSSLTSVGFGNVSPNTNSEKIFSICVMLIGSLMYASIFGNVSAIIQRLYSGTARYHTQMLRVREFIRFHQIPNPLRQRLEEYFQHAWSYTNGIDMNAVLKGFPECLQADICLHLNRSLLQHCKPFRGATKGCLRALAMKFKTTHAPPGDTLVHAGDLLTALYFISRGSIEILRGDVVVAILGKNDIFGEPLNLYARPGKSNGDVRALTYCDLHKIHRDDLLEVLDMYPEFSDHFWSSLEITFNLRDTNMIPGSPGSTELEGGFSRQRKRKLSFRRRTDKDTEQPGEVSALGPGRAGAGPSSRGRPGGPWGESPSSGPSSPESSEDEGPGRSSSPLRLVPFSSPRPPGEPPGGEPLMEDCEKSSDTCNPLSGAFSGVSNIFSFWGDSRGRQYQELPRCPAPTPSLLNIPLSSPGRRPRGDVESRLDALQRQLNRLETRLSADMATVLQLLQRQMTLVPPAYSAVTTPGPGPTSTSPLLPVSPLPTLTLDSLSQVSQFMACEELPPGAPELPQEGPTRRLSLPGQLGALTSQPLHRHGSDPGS

Row | SMILES | hERG current change (%, negative = inhibition) at 10uM [%]
1 | COC(=O)Nc1ccc(S(=O)(=O)N2CCCCC2)cc1 | -4.21
2 | Cc1cccc(OCC(O)Cn2c(=N)n(CCN3CCOCC3)c3ccccc32)c1.Cl (stereo not drawn) | -57.9
3 | CCCCCn1c(=O)c(C(=O)Nc2ncccc2C)c(O)c2ccccc21 | 15.3
4 | Cc1ccc2nc(-c3ccc(N)cc3)sc2c1 | 12
5 | CN1CCCCCC1=Nc1ccccc1C#N.O=C(O)C(=O)O | 13.2
6 | CCSc1nnc(C)n1-c1ccc(C(=O)O)cc1 | 13
7 | Cc1ccc(Cl)cc1N1CCN(C(=O)c2noc(C)c2[N+](=O)[O-])CC1 | 1.15
8 | Cc1cc(C(=O)Nc2ccc(S(=O)(=O)N3CCOCC3)cc2)c(C)o1 | 0.297
9 | O=C1NC(c2cccc([N+](=O)[O-])c2)Oc2ccccc21 (stereo not drawn) | 1.05
10 | Cc1cc(Br)cc(/C=N/NC(=O)c2ccc3c(c2)OCO3)c1O | 23.1
11 | CN1CCOC(=O)/C1=N/Nc1cc(Cl)ccc1Cl | 24.7
12 | Cc1ccc2nc(N/C(=N/S(=O)(=O)c3ccc(F)cc3F)c3ccccc3)sc2c1 | 24
13 | C/C(CC(=O)Nc1ccccn1)=N\NC(=O)c1ccc([N+](=O)[O-])cc1Cl | -17.3
14 | O=C(O)c1ccc(CS(=O)(=O)c2ccc(Br)cc2)cc1 | 7.12
15 | O=C(CSc1nnc(-c2ccccc2)o1)NC1CCCCC1 | -16.6
16 | CC1CCN(C(=O)Cn2nnc(-c3ccc(N)cc3)n2)CC1 | 17.7
17 | CCN(C(=O)CSc1nc2ccccc2o1)C1CCS(=O)(=O)C1 (stereo not drawn) | -3.25
18 | CCc1cc(=O)oc2c(C)c(OCC(=O)N3C[C@H]4C[C@@H](C3)c3cccc(=O)n3C4)ccc12 | 5.08
19 | O=C(C1CC1)N1N=C(c2ccccc2)CC1(O)C(F)(F)C(F)(F)F (stereo not drawn) | -10.1
20 | CCn1c2ccccc2c2cc(CN3CCN(S(=O)(=O)CC)CC3)ccc21.O=C(O)C(=O)O | -13.4
21 | CCOC(=O)/C(C#N)=C/c1cccn1-c1ccc(Cl)cc1 | 2.73
22 | CCOC(=O)c1c(NC(=O)COc2ccccc2OCC)sc2c1CC(C)(C)NC2(C)C | 13.3

Row | SMILES | hERG current change (%, negative = inhibition) at 10uM [%]
23 | Cc1ccc(CNC(=O)C(C)OC(=O)c2ccco2)cc1 (stereo not drawn) | -2.97
24 | Cc1cc(C)c(-n2c(O)c(/C=N/N3CCCCC3c3cccnc3)c(=O)[nH]c2=O)c(C)c1 (stereo not drawn) | 4.41
25 | COc1cc(-n2c(=S)[nH]c3ccccc3c2=O)c(Cl)cc1Cl | -2.77
26 | CS(=O)(=O)N1CCN(Cc2ccc(C(F)(F)F)cc2)CC1.O=C(O)C(=O)O | 0.441
27 | Cc1cccc(-n2c(-c3ccncc3)n[nH]c2=S)c1C | 16
28 | CCCCCCCC(=O)NC(Nc1ccc(S(N)(=O)=O)cc1)C(Cl)(Cl)Cl (stereo not drawn) | -5.89
29 | O=C(CCNS(=O)(=O)c1cccc2nonc12)NCCc1ccc(Cl)cc1 | -15.2
30 | Cc1sc(NC(=O)c2cc3ccccc3oc2=O)c(C(=O)OC(C)C)c1-c1ccccc1 | 5.77
31 | NC(=O)CN(Cc1ccccc1)S(=O)(=O)c1ccc2c(c1)OCCO2 | 21.8
32 | COCc1cc(/C=N\NC(=O)COc2ccccc2)ccc1OC | -6.44
33 | CCCn1c(=O)c(C(=O)NCCc2ccc(OC)cc2)c(O)c2ccccc21 | 14.1
34 | CCOc1ccc(-n2c(=S)sc3c(=O)[nH]c(SCC(=O)NCC4CCCO4)nc32)cc1 (stereo not drawn) | -3.04
35 | COc1ccccc1OCC(=O)Nc1ccc(C(N)=O)cc1 | 19.6
36 | Clc1ccc(C(c2nnnn2C2CCCC2)N2CCN(c3nc4ccccc4s3)CC2)cc1 (stereo not drawn) | 5.68
37 | CCc1ccccc1NC(=S)N(Cc1cccc(C)c1)c1cccnc1 | 20.3
38 | COCCn1c(SCC(=O)Nc2cccc(NC(C)=O)c2)nc2c([nH]c3ccccc32)c1=O | 15.2
39 | Cc1ccc(-c2c[n+](=O)c3c(n2[O-])CCC3)cc1 | 20
40 | Cc1ccc(CNC(=O)CSc2nc3ccccc3[nH]2)cc1 | 3.44
41 | Cc1cc(C)nc(SCCC(=O)Nc2ccc(F)cc2)n1 | 7.84
42 | Cc1ccc(-n2nnnc2SCC(=O)N2Cc3ccccc3CC2C(=O)O)cc1 (stereo not drawn) | 6.64
43 | CNS(=O)(=O)c1cccc(C(=O)NNC(=O)c2ccc(COc3ccccc3)cc2)c1 | 6.84
44 | O=C(COC(=O)c1ccccc1Oc1ccccc1)NCc1ccco1 | -19.1

Row | SMILES | hERG current change (%, negative = inhibition) at 10uM [%]
45 | O=C(c1ccc(F)cc1)N1CCN(C2=NS(=O)(=O)c3ccccc32)CC1 | -15.8
46 | CCOc1ccc(C(C)(O)CN2CCOCC2)cc1 (stereo not drawn) | 14.8
47 | O=C(NCCc1ccccc1)c1ccc2c(c1)S(=O)(=O)c1cc(Cl)ccc1C2=O | 18.9
48 | COc1ccc(C(=O)Cn2ccsc2=NC(C)=O)cc1 | 9.46
49 | COc1ccc(CC(CC(=O)O)C(=O)Nc2ccc(Cl)c(Cl)c2)cc1 (stereo not drawn) | 19.6
50 | CS(=O)(=O)N1CCN(C(=O)COc2ccccc2)CC1 | 56.2
51 | N#C/C(=C\c1ccccc1)C(=O)NC(=O)Oc1ccccc1 | 17.2
52 | COc1ccc(-c2nn3c(-c4ccccc4)nnc3s2)cc1OC | -9.45
53 | O=C(C1CCC(=O)N(C2CC2)C1)N1CCN(c2ccc(Cl)cc2)CC1 (stereo not drawn) | -38.1
54 | CN(C)CCCN(C(=O)c1ccc(S(=O)(=O)N2CCc3ccccc3C2)cc1)c1nc2c(F)cc(F)cc2s1.Cl | -15.2
55 | O=C(CSc1n[nH]c(=O)n1C1CC1)Nc1cc(Cl)ccc1Oc1ccccc1 | -35.1
56 | CCC(CC)C(=O)NCc1ccc(OC)cc1 | 2.37
57 | Cc1ccccc1OCCOc1ccc([N+](=O)[O-])cc1/C=N/n1cnnc1 | -28.3
58 | COc1ccc([C@@H]2CC=C(C(=O)O)[C@H](c3ccc(Cl)cc3)N2S(=O)(=O)c2ccc(C)cc2)cc1OC | 1.48
59 | COCCCNC(=S)Nc1ccc2c(c1)OCCO2 | -30.6
60 | COC(=O)c1ccccc1NC(=O)CN1CCC(NC(=O)c2ccccc2C)CC1 | -39.9
61 | COc1ccccc1C(=O)Nc1sc(C(=O)N2CCCC2)c(C)c1C#N | 12
62 | CCOC(=O)N1CCN(c2nc(C)c3c(n2)CC(C)CC3=O)CC1 (stereo not drawn) | -1.43
63 | COc1ccc(C)cc1S(=O)(=O)N(C)CC(=O)N1CCN(C)CC1 | 2.65
64 | CN(Cc1cnn(C)c1)Cc1nc(-c2ccc(Cl)cc2)no1 | -4.26
65 | Cn1c(=O)[nH]c(=O)c2c1nc(Sc1ccccc1)n2CCc1ccccc1 | 5.97
66 | CC(=O)Nc1ccc(/C=N/NC(=O)CCN2CCN(c3ccccc3)CC2)cc1 | -2.3

Row | SMILES | hERG current change (%, negative = inhibition) at 10uM [%]
67 | C=CC1CN2CCC1CC2C(OC(C)=O)c1ccnc2ccc(OC)cc12 (stereo not drawn) | -32.9
68 | CC(C)(C)C(=O)CN1C(=O)NC(c2ccccc2)(c2ccccc2)C1=O | 0.339
69 | O=C(c1ccc(Cn2c(=S)[nH]c3ccc(Br)cc3c2=O)cc1)N1CCN(C2CCCCC2)CC1 | 15.1
70 | NCCNc1ccc([N+](=O)[O-])c(NC2CC2)c1 | -2.59
71 | Cc1cc(NC(=O)c2cc(C3CC3)on2)no1 | 24.7
72 | COc1ccc(C(C(=O)NC2CCCCC2)N(C(=O)c2csnn2)C2CC2)cc1 (stereo not drawn) | -21.4
73 | COc1cc(-n2c(=O)c3ccccc3n(CC(=O)c3ccccc3)c2=O)cc(OC)c1OC | 9.1
74 | COc1ccc(COC(=O)C2CCN(S(=O)(=O)c3ccc(C)cc3)CC2)cc1 | -7.61
75 | CCOC(=O)C1=C(C)NC(=O)NC1c1ccc(Br)o1 (stereo not drawn) | 7.02
76 | CCN1C(=O)C2C(c3cccc(F)c3)NC(C)(C(=O)OC)C2C1=O (stereo not drawn) | 5.3
77 | CC(c1ccccc1)C1CC(=O)N(c2cc(Cl)ccn2)C1=O (stereo not drawn) | -16
78 | COc1ccccc1N1CCN(CC(=O)Nc2nc(C)c(C(=O)N(C)C)s2)CC1 | 6.73
79 | O=C(c1cc(Cl)ccc1Cl)N1CCN(Cc2ccccc2)CC1 | 5.54
80 | O=C(COCc1nc2ccccc2c(=O)[nH]1)NCC1CCCCC1 | -39.3
81 | Cn1nnnc1Sc1ncnc2scc(-c3ccc(C(F)(F)F)cc3)c12 | -3.45
82 | Nc1ccc(-c2nc3ccccc3[nH]2)cc1 | -5.4
83 | C=CCNC(=O)/C(C#N)=C/c1c(N(Cc2ccccc2)Cc2ccccc2)nc2ccccn2c1=O | -44.2
84 | CC(NC(=S)N1CCN(c2ccccc2)CC1)c1ccccc1 (stereo not drawn) | 5.05
85 | COc1ccc(C2=NN(C(=O)CCC(=O)O)C(c3ccc(OC)cc3)C2)cc1 (stereo not drawn) | -0.757
86 | O=C(Cc1cccc(C(F)(F)F)c1)OCC(=O)N1CCN(S(=O)(=O)c2ccc(Cl)cc2)CC1 | -6.07
87 | Cc1cccc(Cn2c(SCC(=O)Nc3ccccc3)nc3c2c(=O)[nH]c(=O)n3C)c1 | -30.2
